Test results: PubChem BioAssay AID1347165 (National Center for Advancing Translational Sciences (NCATS), 2019)
In all, about 220,000 compounds went through this assay and about 5,700 (2.6%) were called active. The inconclusive results got no clear call from the source; some entries with a clear call stand among them for comparison. Calls follow the shape of the dose curve; as a rule, active = well fitted inhibition curve with a large enough effect; inconclusive = small, poorly fitted or top-dose-only effect; inactive = no such curve, though single readings can be large or run the other way. Where the call is inconclusive, the potency comes from a doubtful curve fit.

These compounds were tested against Lysine-specific demethylase 5B (Homo sapiens) (UniProt Q9UGL1) (assay: Primary screen for KDM5B Histone Demethylases FDH-coupled qHTS). Conditions: FDH-coupled NADH fluorescence (FDH is formaldehyde dehydrogenase); activity change, negative = inhibition: at 57.7 µM (top of the series) unless noted.
In short: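 Compound dilutions met 200 nM (final) KDM5BΔAP for 10 min at room temperature before substrate addition. The substrate mix held 12.5 µM H3K4me3 with cofactors 25 µM α-ketoglutarate and 50 µM Fe²⁺. NADH signal gain over 30 min defined activity.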
Also: nearly all actives have a fitted effect of over 70% in size.
For activity change, negative = inhibition in this document: 0% is about no effect.
Potency is read from the fitted curve at half-maximal effect; tags tell the direction and shape of the fitted curve.

Chain of UniProt Q9UGL1 (Q9UGL1 whole entry, looked up): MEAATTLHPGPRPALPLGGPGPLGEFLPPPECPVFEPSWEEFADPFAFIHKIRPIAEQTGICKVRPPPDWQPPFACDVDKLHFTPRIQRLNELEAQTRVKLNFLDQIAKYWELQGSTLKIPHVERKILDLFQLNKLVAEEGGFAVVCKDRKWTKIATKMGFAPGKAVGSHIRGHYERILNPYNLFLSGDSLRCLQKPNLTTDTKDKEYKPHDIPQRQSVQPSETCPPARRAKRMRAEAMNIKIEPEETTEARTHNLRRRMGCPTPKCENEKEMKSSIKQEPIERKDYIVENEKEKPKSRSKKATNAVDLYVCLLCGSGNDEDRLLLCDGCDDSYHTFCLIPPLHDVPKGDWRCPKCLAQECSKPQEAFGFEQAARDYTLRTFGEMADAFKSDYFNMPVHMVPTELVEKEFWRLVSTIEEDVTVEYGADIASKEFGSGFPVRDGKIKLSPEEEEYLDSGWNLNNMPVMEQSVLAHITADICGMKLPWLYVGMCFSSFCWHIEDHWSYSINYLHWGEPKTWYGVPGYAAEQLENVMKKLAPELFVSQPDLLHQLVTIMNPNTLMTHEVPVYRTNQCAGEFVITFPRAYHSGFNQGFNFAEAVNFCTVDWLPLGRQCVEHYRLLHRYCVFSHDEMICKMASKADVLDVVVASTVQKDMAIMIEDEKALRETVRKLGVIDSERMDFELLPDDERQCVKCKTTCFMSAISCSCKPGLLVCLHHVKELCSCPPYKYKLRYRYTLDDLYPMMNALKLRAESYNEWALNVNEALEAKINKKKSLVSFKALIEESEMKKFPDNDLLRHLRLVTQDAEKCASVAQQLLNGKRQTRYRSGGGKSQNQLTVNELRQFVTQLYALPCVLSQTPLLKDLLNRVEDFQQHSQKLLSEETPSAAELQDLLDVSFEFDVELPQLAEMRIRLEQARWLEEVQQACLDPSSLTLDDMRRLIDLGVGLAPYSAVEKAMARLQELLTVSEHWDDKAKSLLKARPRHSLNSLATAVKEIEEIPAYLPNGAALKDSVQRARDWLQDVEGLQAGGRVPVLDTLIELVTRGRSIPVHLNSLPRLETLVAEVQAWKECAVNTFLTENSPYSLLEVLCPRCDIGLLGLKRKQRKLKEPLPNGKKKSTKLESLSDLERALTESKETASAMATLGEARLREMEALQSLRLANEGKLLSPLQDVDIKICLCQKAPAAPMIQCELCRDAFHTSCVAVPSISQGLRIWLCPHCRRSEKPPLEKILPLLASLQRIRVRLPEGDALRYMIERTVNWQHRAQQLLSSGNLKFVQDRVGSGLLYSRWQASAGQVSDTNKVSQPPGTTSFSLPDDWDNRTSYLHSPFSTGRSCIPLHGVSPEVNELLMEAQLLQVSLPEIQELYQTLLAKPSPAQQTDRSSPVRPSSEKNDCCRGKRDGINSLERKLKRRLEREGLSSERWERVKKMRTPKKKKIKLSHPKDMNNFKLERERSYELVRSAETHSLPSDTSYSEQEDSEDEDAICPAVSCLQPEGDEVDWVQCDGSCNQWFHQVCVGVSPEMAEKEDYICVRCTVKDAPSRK

Compound | Potency | activity change, negative = inhibition
COC(=O)c1ccccc1NC(=O)c1cc(-c2ccccc2O)no1 | inconclusive: 15.8 µM [inhibitor, partial curve, poor fit] | –
CCOc1ccccc1NC(=O)Cn1c(N2CCc3ccccc3C2)nc(C)cc1=O | inconclusive: 25.1 µM [inhibitor, partial curve, poor fit] | –
COc1ccc(-c2cc(-c3ccccc3)c(C#N)c(SCC(O)CS(=O)(=O)Cc3ccc(Cl)cc3)n2)cc1 (stereo not drawn) | inconclusive: 17.8 µM [inhibitor, partial curve, poor fit] | –
N[S+](=O)([O-])c1ccc(C(=O)N2CC(c3ncc4c(-c5ccccc5)nccn34)C2)cc1 | inconclusive: 28.2 µM [inhibitor, single point] | –
COc1ccc(-n2c(C)c(C)c3c2ncn2nc(-c4ccco4)nc32)cc1 | inconclusive: 12.6 µM [inhibitor, partial curve, poor fit] | –
Cn1c(CO[C@H]2CN(Cc3ccc(S(C)(=O)=O)cc3)C[C@H]2F)nc2ccccc21 | inconclusive: 56.2 µM [inhibitor, single point] | –
CN(C)CC(=O)N1Cc2ccccc2CC2(CCCN(CC3CCNC3)C2)C1 (stereo not drawn) | inconclusive: 56.2 µM [inhibitor, partial curve, poor fit] | –
COc1ccc(NC(=O)CN2C(=O)CCn3nc(-c4cccn4C)cc32)cc1Cl | inconclusive: 25.1 µM [inhibitor, partial curve, poor fit] | –
O=S(=O)(c1ccc(-c2cc(C(F)(F)F)on2)s1)N1CCN(c2ccccc2F)CC1 | – | inconclusive: -31.8% [inhibitor]
Cc1ccc(C(CC(=O)O)NC(=O)c2nn(C)c(=O)c3ccccc23)cc1 (stereo not drawn) | inactive | –
N#Cc1cccnc1N1CCN(c2nccc(N3CCCC(O)C3)n2)CC1 (stereo not drawn) | inconclusive: 28.2 µM [inhibitor, partial curve, poor fit] | –
CC(C)CN1CCOC(CNC(=O)Cc2ccc(Cl)c(Cl)c2)C1 (stereo not drawn) | inactive | –
C=CCNC(=O)N1CC[C@H]2CC(=O)N([C@H](C(N)=O)C(C)C)CC[C@H]2C1 | inconclusive: 11.2 µM [inhibitor, single point] | –
O=C1C(O)=C(c2ccccc2)C(c2ccccc2F)N1c1ccc(F)cc1 (stereo not drawn) | inconclusive: 31.6 µM [inhibitor, partial curve, poor fit] | –
Cc1ccc(Br)cc1S(=O)(=O)Nc1ccc2cn[nH]c2c1 | inactive | –
O=C(CC12CC3CC(CC(C3)C1)C2)NCC(=O)OCC(=O)N1CC(=O)Nc2ccccc21 | inactive | –
CC(c1ccc(F)cc1)N1CCN(c2oc(-c3ccco3)nc2C#N)CC1 (stereo not drawn) | inconclusive: 25.1 µM [inhibitor, single point] | –
CCc1cccc(NC(=O)COC(=O)c2cn(CC)c3nc(C)ccc3c2=O)c1 | inconclusive: 12.6 µM [inhibitor, partial curve, poor fit] | –
O=C(Cc1ccc(Cl)c(Cl)c1)NCc1cccs1 | inactive | –
COc1ccc(C(=O)/C=C/c2ccccc2)cc1OC | inactive | –
O=C(CSc1nc(-c2ccccc2)c(-c2ccccc2)o1)N1CCCCC1 | inconclusive: 39.8 µM [inhibitor, partial curve, poor fit] | –
Cc1ccccc1/[N+]([O-])=C/c1ccccc1 | inconclusive: 28.2 µM [inhibitor, single point] | –

Compound | Potency | activity change, negative = inhibition
COc1cccc(-c2cn3c(n2)N(C(=O)Cc2ccccc2)CCC3)c1 | inactive | –
COc1ccc(NC(=O)Cn2cccc2-c2nc(-c3ccc4c(c3)OCO4)no2)cc1 | inactive | –
Cc1ccccc1C(=O)NCc1nnc2ccc(-c3ccccc3)nn12 | active: 31.6 µM | –
COc1ccc(CN2C(=O)COC[C@H]2C(=O)N2CCSCC2)c(OC)c1 | inconclusive: 39.8 µM [inhibitor, single point] | –
CN(C)CCO/N=C(\c1ccc(Br)cc1)c1cccnc1 | inconclusive: 8.91 µM [inhibitor, full curve, poor fit] | –
Cn1nc(C2CCN(C(=O)COc3ccc(F)cc3)CC2)c2c1CCOC2 | inactive | –
O=C(c1ccncc1)N1C[C@@H]2OCC(=O)N(Cc3cccnc3)[C@@H]2C1 | inconclusive: 14.1 µM [inhibitor, partial curve] | –
CS(=O)(=O)c1ccc(CN2CC[C@H](c3nc4ncccc4[nH]3)C2)cc1 | inconclusive: 31.6 µM [inhibitor, partial curve] | –
CCN(CC)C(N)=S | inactive | –
CCOc1nccn2c(-c3ccc(CNc4ccc(OC)nc4)cc3)cnc12 | inconclusive: 4.47 µM [inhibitor, full curve, poor fit] | –
Cc1ccccc1-c1cc2c(ccn2C)c(C(=O)NCCc2cnc[nH]2)n1 | active: 39.8 µM | –
O=C(COc1cc(O)c2c(=O)cc(-c3ccccc3)oc2c1)Nc1ccccc1F | inactive | –
Cc1ccccc1CNC(=O)c1ccc2c(c1)c(C)c(C)n2C | inconclusive: 12.6 µM [inhibitor, partial curve, poor fit] | –
CN(C)c1ccc(CNC(=O)c2ccc(Cn3c(SCc4ccccc4)nc4cccnc43)cc2)cc1 | inconclusive: 25.1 µM [inhibitor, partial curve, poor fit] | –
CCc1ccc(CNC(=O)c2cnc3sc(N4CCCC4)nn3c2=O)cc1 | inconclusive: 5.62 µM [inhibitor, partial curve, poor fit] | –
CN(Cc1ccccc1C(F)(F)F)C(=O)C1CCN(Cc2cccnc2)CC1 | inactive | –
Oc1c(Cl)cc(Cl)cc1C=Nc1cccc2ccccc12 | inconclusive: 12.6 µM [inhibitor, partial curve, poor fit] | –
O=c1oc2ccccc2c(NCc2ccccc2)c1NS(=O)(=O)c1ccc(F)cc1F | inactive | –
Cc1ccc(NC(=O)c2cc3c(s2)CCCCC3)cc1 | inconclusive: 39.8 µM [inhibitor, single point] | –
Cc1cc(C)cc(NC(=O)Cn2c(-c3cncs3)nc3ccccc32)c1 | inconclusive: 35.5 µM [inhibitor, single point] | –
CC(C)n1nc(C(=O)OCc2nc(N)nc(Nc3ccccc3)n2)c2ccccc2c1=O | inactive | –
